PubChem BioAssay AID463173 (ICCB-Longwood Screening Facility, Harvard Medical School, 2010)
Hit rate of the full screen: of about 52,000 compounds, about 4,300 (8.3%) were called active. Rule as the data show it: active = survival mostly below about 52% (no sharp cut-off); inactive = mostly above about 56%. The list shows a part of the results.

The compounds below were run on DeltatarO mutant (assay: S. aureus survival, RN4220 and DeltatarO strains – OD600, teichoic acid synthesis inhibitors, primary screen (AID 463173)). Settings: S. aureus RN4220 wild type/DeltatarO growth, OD600, 18 h, active compounds read low, screened at 18.75 µg/mL (by protocol).

SMILES	survival
Cc1ccc(S(=O)(=O)N2CCCc3cc(NS(=O)(=O)c4ccccc4)ccc32)cc1	inactive: 78%
CCOC(=O)c1ccc(N2CCN(c3ccc(F)cc3)CC2)c(NC(=O)Nc2ccc(CC)cc2)c1	inactive: 119%
CN(C)c1ncc(C(=O)NCc2ccccc2Cl)cn1	inactive: 74%
COc1ccc(S(=O)(=O)NCc2ccc3c(c2)CCN3C(C)=O)cc1OC	inactive: 83%
Cc1ccc(NC(=O)CCS(=O)(=O)c2ccc3nc(C)sc3c2)c(C)c1	inactive: 79%
CCOc1ccc(CN2C(=O)c3ccccc3Sc3ccc(C(=O)NCCCN4CCOCC4)cc32)cc1	inactive: 134%
CC(=O)c1ccc(NC(=O)CSc2nc(-c3ccccc3C)nc3c2c(=O)n(C)c(=O)n3C)cc1	inactive: 112%
CCOC(=O)c1c(C)oc2nc(C)nc(N(C)Cc3ccccc3)c12	inactive: 99%
CCOc1ccc(C(=O)c2cn(Cc3cccc(OC)c3)c3cc4c(cc3c2=O)OCO4)cc1	inactive: 72%
Cc1ccc(S(=O)(=O)N2CCCC2C(=O)Nc2ccc(Br)cc2)cc1 (centres undefined)	inactive: 102%
O=C(CSc1ncc(-c2ccc(Cl)cc2)[nH]1)Nc1ccccc1F	inactive: 61%
O=C(C1CCCN(S(=O)(=O)c2cccc3nonc23)C1)N1CCN(c2cccc(C(F)(F)F)c2)CC1 (centres undefined)	inactive: 67%
CCc1cc2cc3c(cc2nc1SCC(=O)N1CCCCC1)OCO3	inactive: 99%
CCOC(=O)CNC(=O)Nc1cc(C(=O)NCc2ccc(C(C)C)cc2)ccc1N1CCCC1	inactive: 93%
Cc1ccc2[nH]c(=O)c3cc(C(=O)NCc4cccc(Cl)c4)sc3c2c1	inactive: 70%
O=C(c1ccco1)N1CCN(C2c3cccc4cccc(c34)C2NS(=O)(=O)c2ccccc2)CC1 (centres undefined)	inactive: 73%
COc1ccccc1-c1noc(CSc2nnc(-c3ccccc3)n2-c2ccc(C)c(C)c2)n1	inactive: 77%
Cc1cc(C)c(/C=C/c2onc(C)c2S(=O)(=O)N2CCC(C(=O)Nc3cccc(C)c3C)CC2)c(C)c1	inactive: 99%
CCOC(=O)c1c(C)oc2c1cc(NS(=O)(=O)c1ccc(C)cc1)c1ccccc12	inactive: 56%
CCSc1nc2ccccc2c(=O)n1CCOC	inactive: 99%
O=C(NC1CC(=O)N(c2ccc(Cl)cc2)C1)C1CCCC1 (centres undefined)	inactive: 78%
O=C(Nc1cccnc1N1CCOCC1)c1cc2ccccc2oc1=O	inactive: 79%

SMILES	survival
CCC(C)NC(=O)c1ccc2c(c1)nc1n2CCCCC1 (centres undefined)	inactive: 81%
CCOc1ccc(NC(=O)CSc2nc3c([nH]c4ccccc43)c(=O)n2-c2cc(C)cc(C)c2)cc1	inactive: 89%
COC(=O)c1cc2c(ccn2-c2ccc(F)cc2)n1C(C)C	inactive: 87%
O=C(COc1cccc(Cl)c1)N1CCC(c2nc3ccccc3o2)CC1	inactive: 71%
CCOC(=O)c1c(C)oc2ccc(OCC(N)=O)cc12	inactive: 100%
Cc1cccc(N2CCN(C(=O)c3cnc4c(C)cccn4c3=O)CC2C)c1 (centres undefined)	active: 32%
O=C(NCc1ccccc1Cl)C1CCCN(C(=O)c2cnn(-c3ccc(F)cc3)c2-n2cccc2)C1 (centres undefined)	inactive: 67%
Cc1nc2c(-c3ccccc3)c(C)nn2c(C)c1CCC(=O)NCCc1ccccc1	inactive: 86%
CC(C)c1ccc(NC(=O)N2CCN(c3ccc(Cl)c(Cl)c3)CC2)cc1	inactive: 87%
CCN1CCc2c(sc(-n3cccc3)c2C(C)NC(=O)Nc2cc(Cl)c(OC)cc2OC)C1 (centres undefined)	inactive: 96%
Cc1ccc(NC(=O)c2cc(S(=O)(=O)N3CCCCCC3)ccc2F)cc1F	inactive: 144%
Cc1sc2c(c1C)c(=O)n(Cc1ccccc1)c(=O)n2CC(=O)N(C)c1ccccc1	inactive: 97%
CCCNC(=O)c1cnn2c(C(F)F)cc(-c3ccccc3)nc12	inactive: 58%
CC(C)Oc1ccc(NC(=O)c2cc3ccccc3o2)cc1	active: 40%
CC1(C)CC(=O)c2cc(-c3nc(-c4ccc(Cl)cc4)cs3)c(=O)[nH]c2C1	inactive: 86%
CCC(=O)N1c2ccccc2C(C)(c2ccccc2)CC1(C)C (centres undefined)	active: -8%
CN1CCN(C(=O)c2ccc3c(c2)N(Cc2ccc(F)cc2)C(=O)c2ccccc2S3=O)CC1 (centres undefined)	inactive: 91%
CC(C)(C)OC(=O)N1CCC(c2c(C(=O)NCc3ccccc3)cnn2-c2ccc(F)cc2)CC1	inactive: 128%
CCOc1ccccc1NC(=O)c1cc(S(=O)(=O)N2CCOCC2)cn1C	inactive: 71%
O=C(CSc1nc(-c2ccccc2)no1)N1CCN(c2ccccc2)CC1	inactive: 99%
C=CCNc1nc(N2CCCCC2)nc(N2CCCCC2)n1	inactive: 79%
O=C(c1cccn1-c1nnc(N2CCCCC2)s1)N1CCN(c2ccc(Cl)cc2)CC1	inactive: 69%
